About 2,200 (0.71%) of roughly 310,000 compounds showed an effect of 50% or more. Effects have a minus sign here. The list shows a part of the results.
The molecules below were run against human ether-à-go-go-related gene (hERG) potassium channel (human, UniProt Q12809) (assay: primary screen, population patch clamp on CHO cells stably expressing hERG).
Chain of human ether-à-go-go-related gene (hERG) potassium channel (Q12809 whole entry, looked up): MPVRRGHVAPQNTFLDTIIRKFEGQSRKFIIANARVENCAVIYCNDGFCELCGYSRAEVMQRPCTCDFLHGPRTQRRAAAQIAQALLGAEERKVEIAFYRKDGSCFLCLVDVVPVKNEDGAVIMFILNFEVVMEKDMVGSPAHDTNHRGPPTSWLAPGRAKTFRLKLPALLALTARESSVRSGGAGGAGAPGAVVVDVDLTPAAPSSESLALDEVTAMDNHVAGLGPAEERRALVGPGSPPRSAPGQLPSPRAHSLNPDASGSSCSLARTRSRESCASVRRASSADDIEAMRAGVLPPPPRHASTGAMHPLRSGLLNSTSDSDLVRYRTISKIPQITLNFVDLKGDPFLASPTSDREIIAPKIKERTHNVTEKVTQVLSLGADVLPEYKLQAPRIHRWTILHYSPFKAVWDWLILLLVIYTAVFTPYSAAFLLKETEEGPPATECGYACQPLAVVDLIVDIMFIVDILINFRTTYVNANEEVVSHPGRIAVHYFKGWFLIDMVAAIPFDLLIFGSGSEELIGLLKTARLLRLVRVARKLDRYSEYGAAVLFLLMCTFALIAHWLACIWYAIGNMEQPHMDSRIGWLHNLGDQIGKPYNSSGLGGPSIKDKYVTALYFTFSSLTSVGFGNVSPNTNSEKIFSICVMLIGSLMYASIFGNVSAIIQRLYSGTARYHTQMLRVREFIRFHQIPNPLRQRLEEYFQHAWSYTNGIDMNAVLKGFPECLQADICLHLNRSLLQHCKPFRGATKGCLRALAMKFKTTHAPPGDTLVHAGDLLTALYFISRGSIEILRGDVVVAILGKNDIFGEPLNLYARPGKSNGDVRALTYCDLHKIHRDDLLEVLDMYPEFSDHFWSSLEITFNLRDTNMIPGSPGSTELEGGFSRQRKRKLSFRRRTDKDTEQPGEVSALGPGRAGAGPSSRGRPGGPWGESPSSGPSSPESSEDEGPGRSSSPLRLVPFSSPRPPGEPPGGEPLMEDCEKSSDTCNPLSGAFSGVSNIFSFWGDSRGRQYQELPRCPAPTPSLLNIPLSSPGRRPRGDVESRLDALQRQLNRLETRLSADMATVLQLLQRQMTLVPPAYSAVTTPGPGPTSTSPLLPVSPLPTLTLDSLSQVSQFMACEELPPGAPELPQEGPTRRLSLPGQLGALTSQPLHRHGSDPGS

SMILES | hERG current change (%, negative = inhibition) at 1uM [%]
CCN1C(=O)c2cccc3c(S(=O)(=O)Nc4c(C)n(C)n(-c5ccccc5)c4=O)ccc1c23 | 7.85
COc1ccc(-c2cc(C(=O)N3CCN(c4ccc(F)cc4)CC3)no2)cc1 | 17.1
Cc1ccc(C2=NOC(C)(c3nnc(-c4ccccc4)o3)C2)cc1 (stereo not drawn) | 2.28
CC(=NCc1ccc2c(c1)OCO2)c1c(O)n(-c2ccccc2)c(=O)[nH]c1=O | 8.35
NS(=O)(=O)c1ccc(CCNC(=O)C(=O)NCC2OCCN2C(=O)c2ccc3c(c2)OCO3)cc1 (stereo not drawn) | 5.74
Cn1cc(/C=N/NC(=O)COc2ccccc2[N+](=O)[O-])c2ccccc21 | 19.2
Cc1noc(C)c1C(=O)Nc1sc2c(c1C(N)=O)CCCCC2 | 5.05
COc1ccc(C(=O)C2CCCN(Cc3ccc4nonc4c3)C2)c(OC)c1 (stereo not drawn) | -10.8
CCCCOC(=O)c1cccnc1 | 9.4
CCCCN(C(=O)c1cccc(S(=O)(=O)N2CCN(C)CC2)c1)c1c(N)n(CCC)c(=O)[nH]c1=O | 1.3
COc1cccc(CN(C)C(=O)CCNC(=O)c2ccc(Br)cc2)c1 | 0.534
O=P(O)(O)CCP(=O)(c1ccccc1)c1ccccc1 | 8.89
COc1cccc(-c2csc(N3CCN(C(=S)Nc4ccccc4Cl)CC3)n2)c1 | 3.16
Cc1ccccc1OP(N)(=O)Oc1ccccc1C | 14.7
O=C(O)CSc1ncccc1C(=O)O | -7.34
O=C(O)/C=C\c1ccccc1Oc1cccc(Cl)c1 | 9.91
C=CC(C)(O)CCC=C(C)C (stereo not drawn) | 11.9
COc1ccc(CC(=O)N/N=C(\C)CC(=O)Nc2ccc(N(C)C)cc2)cc1 | 15.1
CCOc1cc(C(=O)OCC(=O)Nc2ccc(Cl)cn2)ccc1OCC(=O)N1CCOCC1 | 4.02
Cc1ccc(/C=C2/Sc3ccc(C(=O)NCc4ccccn4)cc3NC2=O)cc1 | 11.4
CCOCCCNC(=O)N1CCOCC1 | -1.18
COc1ccccc1NC(=O)CSCc1nc2ccccc2[nH]1 | 3.11
CC(=O)c1cccc(NC(=O)c2cccc(S(=O)(=O)N3CCOCC3)c2)c1 | 6.33

SMILES | hERG current change (%, negative = inhibition) at 1uM [%]
C=CCn1c(O)c(C(C)=NCCN2CCCCC2)c(=O)[nH]c1=O | 8.8
Cc1c(C(=O)NCC2CCCO2)oc2c(Cl)cccc12 (stereo not drawn) | 7.54
OCc1nc2ccccc2n1CCCCOc1ccccc1 | 5.11
Cc1ccc(NC(=O)C2CCN(C(=O)c3ccc(Cl)cc3)CC2)nc1 | -1.86
O=C(Oc1cccc(-n2cnnn2)c1)c1ccccc1Cl | 10.6
CC(OC(=O)c1ccc([N+](=O)[O-])o1)C(=O)NC1CCCCC1C (stereo not drawn) | 0.21
CCC(C)NC(=O)COC(=O)Cc1sc(N)nc1-c1ccc(C)cc1 (stereo not drawn) | 6.9
Cc1ccc(CCN2CC(C(=O)O)CC2=O)cc1 (stereo not drawn) | -0.364
COc1cccc(-c2cc(C(=O)Nc3cnn(Cc4ccccc4C)c3)no2)c1 | 6.68
COCCCN=C1NN=C(c2cc(C)n(-c3ccccc3)c2C)CS1 | 0.254
CCOP(=O)(OCC)C(NC(=O)/C=C/c1ccc(OC)cc1)c1ccccc1 (stereo not drawn) | 15.9
CC(C)(C#CC(=O)[O-])OOC(c1ccccc1)(c1ccccc1)c1ccccc1.[Na+] | 11.9
O=C(Nc1nnc(-c2ccc(F)cc2)o1)c1ccc(S(=O)(=O)N2CCOCC2)cc1 | 6.82
O=C(c1cc2ccccc2s1)N1CCN(c2ccccn2)CC1 | 2.78
Fc1ccccc1Cn1nnc2c(-n3ccnc3)ncnc21 | 8.45
CCOC(=O)Cn1nc(C)cc1NC(=O)c1cccnc1 | 6
Cc1ccc([N+](=O)[O-])cc1NC(=S)NCCc1ccccc1 | 13.3
COc1cc([N+](=O)[O-])cc(/C=N/NC(=O)C(O)(c2ccccc2)c2ccccc2)c1O | 6.71
COc1cc(S(=O)(=O)N2CCN(C)CC2)ccc1Cl | 14.8
CC1CN(c2nc3ccccn3c(=O)c2/C=C(\C#N)C(N)=O)CC(C)O1 (stereo not drawn) | 13.8
CCOC(=O)Cn1nc(-c2ccccc2)ccc1=O | -22
O=C(c1ccc(CS(=O)Cc2ccccc2Cl)o1)N1CCN(c2ccccn2)CC1 (stereo not drawn) | 6.6
Cc1ccc(S(=O)(=O)n2[nH]c(=O)c(CCO)c2C)cc1 | 0.0859

SMILES | hERG current change (%, negative = inhibition) at 1uM [%]
O=C(NC12CC3CC(CC(C3)C1)C2)N1CCN(C2CCCCC2)CC1 | 8.1
COc1cc(/C=N/NC(=O)CCN2CCN(Cc3ccccc3)CC2)cc(OC)c1OC | 2.23
CSCCC(NC(=O)COc1ccccc1)C(=O)NCC1COc2ccccc2O1 (stereo not drawn) | 12.5
O=C(Nc1cccnc1)c1cc(-c2ccc(Br)cc2)nc2ccccc12 | 10.7
CS(=O)(=O)N(CC(=O)Nc1ccc(C(N)=O)cc1)C1CCCCC1 | 7.54
COc1ccc(S(=O)(=O)NCc2cccnc2)cc1NC(=O)c1ccccc1 | 14.2
COc1ccc(Cl)cc1N(C(C)=O)c1nc(C)cc(C)c1C#N | 9.88
CCOc1ccc(-c2cccc(NS(=O)(=O)c3ccccc3[N+](=O)[O-])c2)nn1 | 0.782
CCOC(=O)/C=C/C(=O)OCC(=O)Nc1ccc([N+](=O)[O-])cc1 | 13.9
CCCCc1ccc(NC(=O)C2CCN(S(C)(=O)=O)CC2)cc1 | 1.72
COc1cccc(NC(=O)C(=O)NCC2CCCN2S(=O)(=O)c2ccccc2)c1 (stereo not drawn) | 9.99
CCCCC(=O)NCc1ccc(F)cc1 | 13
Cc1ccc(NC(=O)C2C(=O)N(CCO)C3(C)CC2c2ccccc2O3)cc1 (stereo not drawn) | -15.3
CN1CCN(C(=O)c2cnn(-c3ccccc3)c2NC(=O)c2ccccc2F)CC1 | 8.22
O=C(NC1CCCCC1)C(Cc1ccccc1)NS(=O)(=O)c1cccs1 (stereo not drawn) | 13
CCCN(C(=O)c1cn(-c2ccccc2)nc1-c1ccc(OC)cc1)C1CCS(=O)(=O)C1 (stereo not drawn) | 3.17
CCCCCC(=O)Nc1ccc(C(=O)CN2C(=O)NC3(CCCCCC3)C2=O)cc1 | 10.7
CCOc1ccccc1NC(=O)NCc1ccc(F)cc1 | 7.57
COc1ccc(-c2nnc(SCC3CCCO3)n2C)cc1 (stereo not drawn) | 10.3
COc1cccc(CNCCc2ccc(F)cc2)c1.O=C(O)C(=O)O | 4.34
O=S(=O)(NC1CCCC1)c1cccc(-c2nnc(-c3ccccc3)o2)c1 | 3.05
CCN(CC(=O)Nc1c(F)cccc1F)C(=O)c1cc(S(=O)(=O)NCc2ccccc2)ccc1C | 0.981
Cc1cc(C)cc(Oc2ccccc2C=O)c1 | 10.6

SMILES | hERG current change (%, negative = inhibition) at 1uM [%]
CC(C)Cc1nnc(NC(=O)CCC(=O)N2CCC3(CC2)OCCO3)s1 | 12.9
CCCCNC(=O)Nc1ccnn1C1CCCCC1 | 14.6
Nc1nnnn1CC(=O)N/N=C/c1ccc(-c2cccc(Cl)c2)o1 | 8.91
CCCCC(=O)NC1(C(F)(F)F)C(=O)N(CC(C)C)C2=C1C(=O)CC(C)(C)C2 (stereo not drawn) | 8.89
COc1cc(/C=N/NC(=O)c2ccc(F)cc2)ccc1OC(=O)c1ccco1 | 8.79
Cc1cc(CN2C(=O)c3ccccc3C2=O)on1 | 15.5
COC(=O)c1nc(NC(=O)C(C)(C)C)n[nH]1 | 6.78
CCCc1[nH]c2ccc(C#N)cc2c1CCC | 22.1
C=CCSCC1Nc2cc(Cl)c(S(N)(=O)=O)cc2S(=O)(=O)N1 (stereo not drawn) | 14.4
CCn1c2ccccc2c2cc(NC(=O)CSc3nnc(-c4ccc(OC)cc4)n3N)ccc21 | -3.06
Cc1ccc(OCCn2cc(C(=S)N3CCCC3)c3ccccc32)cc1C | 16.8
COc1cccc(N2CCN(Cc3nc(N)nc(Nc4ccccc4OC)n3)CC2)c1 | 10.2
O=C(c1cc2ccccc2oc1=O)N(Cc1ccc(F)cc1)C1CCS(=O)(=O)C1 (stereo not drawn) | 2.7
O=c1c2cc(NC(=S)NC3CC3)ccc2nc2n1CCCCC2 | 5.64
C[C@]12CCC(=O)C=C1CC[C@@H]1C2[C@H](O)C[C@]2(C)C(=O)CCC12 (stereo partly drawn) | 10.6
COC(=O)c1ccccc1NC(=O)Cn1ccnc1 | 6.95
COc1cccc(OC)c1OCCCOc1c(OC)cccc1OC | 9.95
CC(C)CNS(=O)(=O)c1ccc(C(=O)Nc2ccc3c(c2)OCCO3)cc1 | 15.2
Cc1c(NS(=O)(=O)c2cc(C(=O)NCc3ccco3)cc(Cl)c2Cl)c(=O)n(-c2ccccc2)n1C | 5.27
CCOC(=O)C1=C(C)Nc2ccccc2N=C1NC(=O)c1cc(C)on1 | -3.04
COc1ccc(S(=O)(=O)Nc2ccccc2OC)cc1NC(=O)c1cc2ccccc2oc1=O | -4.91

Source: publication PMC4336329 (PLoS ONE, 2015)
